# Assay results as given in the supplement of paper PMC11417369.
# ± gives the standard deviation of the averaged measurements. The list shows a part of the results.
# System: PfAP2-I AP2 domain 3 (GST-tagged)
# Experiment: gcPBM binding intensity (ln(normalized median fluorescence intensity)); higher = stronger DNA binding
# Procedure, shortened: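 Binding intensity is the highest Masliner-normalised natural-log median intensity over replicate spots in either probe orientation. To obtain it, GST-tagged P. falciparum DNA-binding domains made in E. coli were incubated for 1 h on an Agilent 4 × 180k array of primer-extended double-stranded 36-bp intergenic genomic probes plus negative controls. Detection used Alexa488 anti-GST antibody with scanning at 488 nm.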
row,Sequence,gcPBM binding intensity (ln)
1,GTAAATCGACACATACGTACATACATTTATATATAT [XGTACX_site3143],8.36 ± 0.61
2,AAAAAAAAGAAAAACACACACATATATATATATAAT [CACACA_site4707],7.63 ± 0.4
3,ACAGACGTTCAAAGGTGTACGCAAAATGAATAATAT [XGTACX_site7565],8.46 ± 0.4
4,TTCTTATTTAATGTATCACACACGAGAATAAAAAAT [CACACA_site8992],7.98 ± 0.48
5,ATATGTATAAGTATGTATATTTATTTATACTTATGT [GTGCAC_negctrl_site221],7.64 ± 0.38
6,TTAATTAAAACGAATACACACATAAATATGTAAAAG [CACACA_site6707],7.69 ± 0.59
7,TATATATATATATAATGTACTTATATTTTTTTGAGG [XGTACX_site2638],9.62 ± 0.25
8,AAAAAAAAAAAAAAAAGTACATATATATATTTATAT [XGTACX_site5893],8.31 ± 0.48
9,TTATATTTATAAAATTGTATACCCCTTCTAACTTTC [CACACA_negctrl_site250],7.68 ± 0.38
10,ATTGTGCTCATCAGCACACACAACATCATGTAATAA [CACACA_site1863],8.71 ± 0.42
11,TATATATATGGTTTAACACACGAGATAAAAGTATAT [CACACA_site2867],8.27 ± 0.77
12,TTTTAAATTTAATTTACACACTTTTCATAGCATTGA [CACACA_site3794],7.8 ± 0.54
13,TTCTATTCACATTTTACACACGTCCATCGCATTTTA [CACACA_site3453],8.29 ± 1
14,TATATGGTATGTATTACACACATATCACATATAGAT [CACACA_site7426],7.53 ± 0.42
15,TATAAATACGAACACACACACCTTATAATTACTACT [CACACA_site7827],7.79 ± 0.54
16,TTATATTTAGTATATGCACACTTTATGTTTGTTATT [CACACA_site5163],9.29 ± 0.21
17,AAAAACCATTGGCACACACACATAATATATAATATA [CACACA_site4903],8.26 ± 0.49
18,AAGAAAGGTTAAACATGTACATAAATATTTTACATA [XGTACX_site5024],7.79 ± 0.42
19,TCATTGAAAATTGTTGCACACATAATAATTAAATAT [CACACA_site8554],8.94 ± 0.16
20,ACACATATGTCTTCATGTACATAATATATAAATCTT [XGTACX_site3438],8.12 ± 0.36
21,CATAAATCAGCCATAACACACATACATATATACATA [CACACA_site8025],7.64 ± 0.52
22,TATCTTTTTATTTTTTATTTTTTTTTTATAATTTAC [XGTACX_negctrl_site414],7.41 ± 0.57
23,TATATATATACAGTTGCATGTTGTGTTTAAAATTTT [TGCATGCA_site816],9.06 ± 0.26

row,Sequence,gcPBM binding intensity (ln)
1,TGTTAAAAAATGGATGCACACATTAAATAAAAAGTA [CACACA_site1660],9.11 ± 0.79
2,TAAAGGTAGATATATTGTACATACACACCTATATAA [XGTACX_site6865],7.63 ± 0.51
3,TCTTGTTTATCAACAGCACACACAACAACAACAACA [CACACA_site8046],8.84 ± 0.66
4,ACATTATATTTGGACTGTACTAATATATTGTTATAT [XGTACX_site5573],7.83 ± 0.36
5,ATATATATATATATATGTACATATTGTATCTTATAC [XGTACX_site5466],9.29 ± 0.47
6,TATACATATATATATTGTACATATTATATATATATA [XGTACX_site3286],8.91 ± 0.21
7,AGAAGAAAACAAAACACACACATATATCTTAATATA [CACACA_site2231],7.62 ± 0.5
8,AAAAAAAAAAACTTTGCATGTAATAATAAAAAAAAA [TGCATGCA_site81],7.74 ± 0.93
9,TGGTGAAAAATATAAATATAAATAAATATATATATA [CACACA_negctrl_site1725],8.86 ± 0.54
10,ATGATCTGTTTGTTTGTGCACATATATATATATTAA,10.5 ± 0.21
11,AAATAAATTGAAGATACATGCATATTTTTTTTTTAT [TGCATGCA_site686],7.35 ± 0.73
12,TTTATATTTTTTTTTGCACACTTTAAAAAAATATAT [CACACA_site1146],10.06 ± 0.064
13,TATATATTACATAAAACACACAAAAAAAAAATTAAA [CACACA_site3882],7.67 ± 0.45
14,ATGTAGAGTAATAGTTGTACAAGGTGTATATCTCAT [XGTACX_site6370],8.21 ± 0.87
15,AATTAAATGTTTCTAAGATATACGACCAATGTATTT [CACACA_negctrl_site1694],7.46 ± 0.53
16,AATTAATGGGTACATACACACATATATACATACATA [CACACA_site742],8 ± 0.25
17,TGTATTATCTCTTATGAACACACATTTTTATTTTCA [CACACA_site9107],7.81 ± 0.68
18,ATGTTAATTAATGAGGTGCATTGAATATTTCAATAA,10.9 ± 0.73
19,CATCAATGCTAATTATGTACTTACATAAATAACCCT [XGTACX_site968],7.73 ± 0.51
20,ATACCTAAAAAATATACACACATATATATAAATATA [CACACA_site2580],7.75 ± 0.44
21,ATATTAATGATATATACACACATAAGTATTGTATAT [CACACA_site7844],7.56 ± 0.23
22,AAATGTAATTTGTCTTTTATTTATATTTGACATGAT [TGCATGCA_negctrl_site520],7.49 ± 0.24
